Among all 310,000 compounds or so, about 14,000 (4.5%) showed an effect of 50% or more. The effect is printed as a negative number. The list shows a part of the results.
Each compound was assayed against human ether-à-go-go-related gene (hERG) potassium channel (human, UniProt Q12809) (assay: primary screen, population patch clamp on CHO cells stably expressing hERG).
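Note: peak tail current of the secondary pulse compared with the same well before compound.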

Chain of human ether-à-go-go-related gene (hERG) potassium channel (Q12809 whole entry, looked up): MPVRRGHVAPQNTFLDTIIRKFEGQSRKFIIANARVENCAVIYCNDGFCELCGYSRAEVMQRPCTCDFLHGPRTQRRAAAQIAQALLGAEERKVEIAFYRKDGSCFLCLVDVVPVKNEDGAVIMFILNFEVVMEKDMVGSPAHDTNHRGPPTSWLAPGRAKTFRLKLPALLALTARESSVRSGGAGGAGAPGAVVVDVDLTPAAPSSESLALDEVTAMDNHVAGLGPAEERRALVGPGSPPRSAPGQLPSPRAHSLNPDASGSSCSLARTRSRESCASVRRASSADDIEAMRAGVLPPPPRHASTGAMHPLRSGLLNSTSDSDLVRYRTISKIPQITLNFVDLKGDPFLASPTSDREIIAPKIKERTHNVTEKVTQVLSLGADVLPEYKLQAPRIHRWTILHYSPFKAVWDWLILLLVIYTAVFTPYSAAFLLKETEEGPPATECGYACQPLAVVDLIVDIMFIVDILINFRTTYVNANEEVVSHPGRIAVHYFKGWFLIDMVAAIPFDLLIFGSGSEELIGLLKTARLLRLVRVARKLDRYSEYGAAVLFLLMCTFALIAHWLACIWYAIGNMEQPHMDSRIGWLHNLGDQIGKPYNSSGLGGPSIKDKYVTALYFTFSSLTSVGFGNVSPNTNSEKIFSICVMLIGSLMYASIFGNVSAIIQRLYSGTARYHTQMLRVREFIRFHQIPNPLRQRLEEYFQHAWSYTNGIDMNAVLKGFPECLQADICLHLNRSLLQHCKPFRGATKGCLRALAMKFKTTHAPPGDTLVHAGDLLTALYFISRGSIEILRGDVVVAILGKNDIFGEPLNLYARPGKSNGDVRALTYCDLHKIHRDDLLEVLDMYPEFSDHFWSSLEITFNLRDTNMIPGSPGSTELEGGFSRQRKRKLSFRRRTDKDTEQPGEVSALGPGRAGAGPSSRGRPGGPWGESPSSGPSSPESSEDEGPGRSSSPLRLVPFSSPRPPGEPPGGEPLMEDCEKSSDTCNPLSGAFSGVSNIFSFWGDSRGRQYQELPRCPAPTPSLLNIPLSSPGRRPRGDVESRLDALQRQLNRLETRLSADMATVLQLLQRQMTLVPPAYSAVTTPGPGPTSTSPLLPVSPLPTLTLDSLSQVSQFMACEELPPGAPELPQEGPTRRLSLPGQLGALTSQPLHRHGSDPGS

SMILES	hERG current change (%, negative = inhibition) at 10uM
Cc1ccccc1C(=O)NCCNC(=O)c1cnccn1	-1.72%
c1ccc(-c2nnnn2CCOCCn2nnnc2-c2ccccc2)cc1	2.32%
O=C1CNC(=O)N1CC(=O)N1CCCc2ccccc21	2.53%
Cc1nc(NN)c2c3c(sc2n1)COC(C)(C)C3	15.3%
CC(OC(=O)CCc1cc(C(C)(C)C)c(O)c(C(C)(C)C)c1)C(=O)NC1CC1 (stereo not drawn)	-33.9%
NC(=O)CSc1nnc(-c2cnccn2)n1Cc1ccco1	7.06%
CCOc1ccc(S(=O)(=O)N(CC(=O)NCc2cccnc2)c2ccc(C)cc2)cc1	-66.9%
O=C(Cc1ccc2c(c1)OCCO2)N1CCN(S(=O)(=O)c2ccccc2C(F)(F)F)CC1	-18.1%
CCN=C(NCC)SC1CC(=O)N(c2ccc(OCC)cc2)C1=O (stereo not drawn)	-6.72%
O=C(COc1ccc(S(=O)(=O)NC2CCCC2)cc1)N1CCCCCC1	13.3%
C=CC(=O)NC(NC(=O)C=C)c1ccc(Br)cc1	-0.848%
CCCCn1ccnc1C	6.82%
CCOC(=O)C(=CNc1nc2ccc(C(=O)OCC)cc2s1)C(=O)OCC	24.3%
COc1ccccc1-c1nnc(SCC(=O)Nc2c(Cl)cccc2Cl)o1	-13.3%
CCC(C)[C@@H](C(=O)N1CCNCC1)n1cc(CCCN=C(N)N)nn1.Cl (stereo partly drawn)	11.3%
CCOC(=O)C1CCCN(S(=O)(=O)c2ccc3c4c(cccc24)C(=O)N3CC)C1 (stereo not drawn)	-63.5%
Cc1ccc(Nc2nc(C(=O)N3CCC(C(=O)N4CCN(C)CC4)CC3)cs2)cc1	9.59%
O=C(CCn1cccc1)NC1CCCc2ccccc21 (stereo not drawn)	4.95%
O=C1CC2(CCCCC2)Oc2ccc(O)cc21	-11.8%

SMILES	hERG current change (%, negative = inhibition) at 10uM
CCN(CCn1cccn1)C(=O)c1cc(COc2ccc(F)cc2Cl)on1	-15.4%
O=C(CSc1nnc(-c2cccnc2)n1C1CCCCC1)NC1CCCC1	-8.3%
CCOC(=O)c1cc(-c2cccc(C(F)(F)F)c2)nc2nc(SC)[nH]c(=O)c12	-33.8%
CCOc1ccccc1CN1CCNC(=O)C1CC(=O)N(C)CCC1CCOCC1 (stereo not drawn)	19.2%
Cc1ccc(NC(=O)c2oc3ccccc3c2NC(=O)C2CC2)cc1	-4.63%
O=C(O)c1ccc2c(c1)C(=O)/C(=C\c1ccco1)C2=O	2.95%
Cc1cc(C)c(O)c(-c2cc(C(=O)Nc3ccc(S(=O)(=O)N4CCOCC4)cc3)[nH]n2)c1	-3.07%
O=C(CCN1C(=O)c2ccccc2C1=O)NC(=S)Nc1ccccc1	3.56%
COc1ccc(NC(=O)N2CCCc3ccccc32)cc1OC	12.3%
CCN(CC)S(=O)(=O)c1ccc(N2CCOCC2)c(NC(=O)Cc2ccccc2)c1	-36.2%
CCc1nnc(NC(=O)CSc2nnc(-c3ccc(O)cc3)n2C)s1	13.2%
CCSCc1nnc(SCC(=O)Nc2nc3ccccc3s2)n1C	-11.1%
CCOC(=O)C1=C(C)NC(=O)/C1=C\N(C)C	19%
COC(=O)[C@@H]1[C@@H](C)N(Cc2ccccc2)C(=O)N[C@H]1c1cccc(C(F)(F)F)c1	2.85%
O=C(Oc1c(Br)cc([N+](=O)[O-])cc1Br)c1cccnc1	16.7%
CCC(C)c1ccc(O)c(N)c1 (stereo not drawn)	-2.96%
CCC(=O)c1ccc(OCC(O)CN2CCN(S(=O)(=O)c3ccc(NC(C)=O)cc3)CC2)cc1 (stereo not drawn)	-20.5%
O=C(Nc1ccc(F)cc1)Nc1ccc(Oc2ncnc3cc(Cl)ccc23)nc1	10.2%
Cc1csc(NC(C)c2nc3cc(C(F)(F)F)ccc3n2CCCO)n1 (stereo not drawn)	-26.7%

SMILES	hERG current change (%, negative = inhibition) at 10uM
COc1ccc(-c2cc(C3CC3)nc3sc(C#N)c(N)c23)cc1	0.566%
O=C(c1ccc2c(c1)ncn2C1CCCCCC1)N1CCC2(CC1)OCCO2	-2.37%
O=C(c1ccc(Cl)cc1)c1cnc(Nc2ccccc2Cl)s1	-1.11%
O=C(COc1cc(=O)n2c(n1)SCCC2)c1ccccc1	4.09%
CCOCCc1nnc(N)s1	2.31%
O=C(Nc1ccccc1N1CCCC1)C1CCN(S(=O)(=O)c2ccc(F)cc2)CC1	-0.0241%
O=C(NC(Cc1ccccc1)C(=O)N1CCN(S(=O)(=O)c2ccccc2)CC1)c1ccccc1 (stereo not drawn)	-8.87%
CCc1noc(C)c1C(=O)N1CCCC(C(=O)c2cc(F)ccc2OC)C1 (stereo not drawn)	18.6%
NC(=O)Cn1c(=O)n(CCc2ccccc2)c(=O)c2c3c(sc21)CCCC3	-15%
CCCCc1cc(=O)oc2cc(O)cc(O)c12	2.39%
O=C(CN1C(=O)NC2(CCCC2)C1=O)NNC(=O)c1ccccc1F	14.2%
O=C(O)c1cc2nc3c(c(C(F)(F)F)n2n1)CCCC3	19.4%
CN1C(=O)C(C)(C)c2cc(S(=O)(=O)N3CCCC(C(=O)NCc4ccc(Cl)cc4)C3)ccc21 (stereo not drawn)	-8.2%
O=C(Cn1nnc(-c2ccc(Cl)cc2)n1)NCc1ccco1	16.7%
CN1C(=S)NC(C)(C)CC1(C)c1ccc(O)cc1O (stereo not drawn)	13.3%
CN(C)NC(=O)c1ccsc1NC(=O)c1ccc(S(=O)(=O)N(C)C)cc1	2.78%
CSc1cccc(NC(=O)C2CCN(S(=O)(=O)c3ccc(F)cc3)CC2)c1	3.45%
C=C1CC[C@@]23CC[C@]4(C)[C@@](OC2=O)([C@@H]3C1)[C@H]1O[C@H]1C1[C@@]2(C)CC[C@H](O)C(C)(C)C2CC[C@]14C (stereo partly drawn)	-12.1%
NS(=O)(=O)c1ccc(CCNC(=O)COC(=O)c2cc([N+](=O)[O-])ccc2N2CCOCC2)cc1	9.02%

From publication PMC4336329 (PLoS ONE, 2015)
